Assay results: PubChem BioAssay AID1346428 (National Center for Advancing Translational Sciences (NCATS), 2018)
Where “and” joins values, the source holds several entries; their conditions need not be identical. Identical values can stand only once. Screen size: about 48,000 compounds; about 1,200 (2.5%) were called active. Another 2% or so got no clear call; they are omitted.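 How the source made its calls: active means activation of at least 60% and not above a set upper limit (about 1 call in 100 departs from these limits); inconclusive means activation of 40% to 60%, or above that upper limit; inactive means activation under 40%.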 The list shows a part of the results.

target: Probable G-protein coupled receptor 32 (Homo sapiens) (UniProt O75388); assay: qHTS for Agonists of Human Resolvin D1 Receptor DRV1; settings: CHO-K1 GPR32 beta-arrestin PathHunter luminescence, 90 min; at 76.9 µM; active compounds read high; zero percent set by DMSO-only wells; further: 0% is about no effect
Summary of the method: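 PathHunter beta-arrestin recruitment in CHO-K1 cells stably expressing ProLink-tagged GPR32. Cells were exposed to compound for 90 min at 37 C, then chemiluminescence was read after 1 h detection at ambient temperature; DMSO served as basal control.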

Chain of UniProt O75388 (O75388 whole entry, looked up): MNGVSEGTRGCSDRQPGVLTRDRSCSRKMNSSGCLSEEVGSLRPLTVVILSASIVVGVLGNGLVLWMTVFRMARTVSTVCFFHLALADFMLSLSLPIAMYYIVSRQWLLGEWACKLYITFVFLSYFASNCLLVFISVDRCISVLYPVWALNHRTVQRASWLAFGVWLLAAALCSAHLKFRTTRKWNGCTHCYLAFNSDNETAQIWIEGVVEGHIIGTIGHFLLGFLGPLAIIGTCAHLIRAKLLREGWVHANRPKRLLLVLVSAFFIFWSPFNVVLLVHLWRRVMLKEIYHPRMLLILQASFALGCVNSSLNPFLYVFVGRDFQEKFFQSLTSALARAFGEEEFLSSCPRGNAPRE

| Structure (SMILES) | activation |
| --- | --- |
| CCCOc1cccc(C(=O)Nc2ccc(-c3nc4ccccc4o3)cc2)c1 | active: 108% |
| CCC(C)NC(=O)c1sc2nc(C)c(C(=O)Nc3ccc(Cl)cc3)c(-c3ccc(Br)cc3)c2c1N (configuration not stated) | inactive: 8.44% |
| O=C(N/N=C/c1ccccc1O)c1ccncc1 | active: 95.9% |
| O=C(CSc1nc2c(c(=O)[nH]1)CN(Cc1ccc3c(c1)OCO3)CC2)Nc1ccc(F)cc1 | inactive: 23.7% |
| COc1ccc2cc(CNc3ccc(OC)c(OC)c3)c(=O)n(CC(=O)Nc3ccc(C)cc3)c2c1 | inactive: -35.9% |
| COc1cc(OC)cc(-n2c(=O)c3ccccc3n(CC(=O)NCCc3ccc(OC)c(OC)c3)c2=O)c1 | inactive: 6.92% |
| COC(=O)c1cc(NC(=O)CN(c2ccccc2)S(=O)(=O)N(C)C)ccc1Cl | inactive: 20% |
| COc1ccc(NC(=O)Cn2cc(C(=O)C3CC3)c3ccccc32)cc1 | inactive: 13% |
| CCN1CCN(C(=O)c2ccc3c(c2)N(Cc2cc(C)ccc2C)C(=O)c2ccccc2S3=O)CC1 (configuration not stated) | inactive: -13.8% |
| CCOc1ccccc1NC(=O)Cn1nnc2sc3c(c2c1=O)CCC(C(C)(C)C)C3 (configuration not stated) | inactive: -6.95% |
| NS(=O)(=O)c1ccc(CCNc2nc3c(-c4cccc(F)c4)nnn3c3ccc(Cl)cc23)cc1 | inactive: 13.8% |
| CCOC(=O)c1c(C)oc2c(Cl)cc(NS(=O)(=O)c3ccc(Cl)c(C)c3)cc12 | inactive: 30.9% |
| CCCCN(CCCC)S(=O)(=O)c1ccc2oc(C(=O)NCc3ccccc3)c(C)c2c1 | inactive: -14.4% |
| CCN(CC)CCCNC(=O)Cn1c(-c2cccs2)cc2cc(Cl)ccc21 | inactive: 18.1% |
| O=C(CCCCn1c(=O)[nH]c2ccsc2c1=O)N1CCN(c2cccc(Cl)c2)CC1 | active: 71.9% |
| Cc1ccc(CSc2nc3ccc(NC(=O)COc4ccccc4F)cc3s2)cc1 | inactive: -11.2% |
| CCOC(=O)c1c(C)[nH]c(C)c1S(=O)(=O)N(C)CC(=O)N1CCN(c2ccccc2OC)CC1 | inactive: 1.25% |
| CCOC(=O)N1CCN(C(=O)CN(c2ccc(C)cc2C)S(=O)(=O)c2ccccc2)CC1 | inactive: -0.525% |
| O=C(CN1C(=O)C2(SCC(=O)N2c2cccc(Cl)c2)c2ccccc21)NC1CCCCC1 (configuration not stated) | inactive: -15.7% |
| Cc1cc(C)c(/C=C/c2onc(C)c2S(=O)(=O)N2CCC(C(=O)NCc3ccco3)CC2)c(C)c1 | inactive: -31.1% |
| Cc1nn(CC(=O)N2CCN(c3ccccc3)CC2)c(=O)c2cccn12 | inactive: -2.84% |

| Structure (SMILES) | activation |
| --- | --- |
| O=C(CNS(=O)(=O)c1ccc(Br)s1)N1CCN(c2ccccc2F)CC1 | inactive: 0.367% |
| Cc1ccc(-c2nc3c(cnn3-c3ccccc3)c(=O)n2-c2ccc(Cl)cc2)cc1 | inactive: -13.4% |
| O=C(COCc1cc(-c2ccco2)on1)Nc1ccc(OC(F)(F)F)cc1 | inactive: -5.73% |
| COc1cccc(OC)c1C(=O)Nc1ccc2c(c1)CCCN2S(=O)(=O)c1ccc(C)cc1 | inactive: -17.3% |
| CCc1nn(CC(=O)NCc2cccc(OC)c2)c(=O)c2cc3cc(F)ccc3n12 | inactive: -19.3% |
| Cc1oc(-c2ccc(Cl)cc2)nc1Cn1c(=O)cc(-c2ccccc2)c2c(C)nn(C)c21 | inactive: -2.43% |
| Cc1ccc(-n2ncc3c(NCCC4=CCCCC4)ncnc32)cc1C | inactive: 1.08% |
| CCc1ccc(C(=O)COC(=O)C(NC(=O)C2CCC(C)CC2)C(C)C)cc1 (configuration not stated) | inactive: 24.4% |
| CCN(c1ccccc1)S(=O)(=O)c1ccc(NC(=O)c2nc(S(C)(=O)=O)ncc2Cl)cc1 | inactive: -16.4% |
| COc1cc(CNC(=O)c2cnc3c(-c4cccc(C)c4)c(C)nn3c2C)cc(OC)c1OC | inactive: -11% |
| COc1ccc(-c2cc3ccc(O)c(CN4CCN(C)CC4)c3oc2=O)cc1OC | inactive: 2.69% |
| CC(=O)Oc1cc(C(C)C)c(OCCN(C)C)cc1C | inactive: 1.49% and inactive: -11.3% |
| CCCc1ccc(OCC(=O)Nc2sc3c(c2C(=O)OCC)CCC(C(C)(C)C)C3)cc1 (configuration not stated) | inactive: 10.4% |
| CC(=O)Nc1ccc(Nc2ccc3cc(S(=O)(=O)N4CCCCC4)ccc3n2)cc1 | inactive: -11.6% |
| O=C(NC1CC(=O)N(c2ccc(Cl)cc2)C1)c1cc2ccccc2o1 (configuration not stated) | inactive: -6.89% |
| Nc1cc(=O)nc(SCC(=O)Nc2ccccc2)n1CCc1ccccc1 | inactive: -14.5% |
| Cc1cccc(CNS(=O)(=O)c2ccc(-c3coc(C)n3)cc2)c1 | active: 98.5% |
| CCOC(=O)c1c(-c2ccc(OC)c(OC)c2)csc1NC(=O)c1ccccc1F | inactive: 2.96% |
| COc1ccc2c(c1)c1c(c(=O)n(-c3cccc(C)c3)c(=O)n1CC(=O)NCCC1=CCCCC1)n2C | inactive: 3.55% |
| COc1ccccc1Nc1nc(-c2ccccc2)c(CC(=O)O)s1 | inactive: -7.89% |
| O=c1c2cccnc2n(Cc2cccc(F)c2)c(=O)n1Cc1ccc(F)cc1 | inactive: -17.1% |

| Structure (SMILES) | activation |
| --- | --- |
| COc1ccc2[nH]cc(CCNC(=O)Nc3cc(C)cc(C)c3)c2c1 | inactive: 17.6% |
| CCC(Nc1ccc(-c2nc(-c3cccnc3)no2)cc1[N+](=O)[O-])c1ccccc1 (configuration not stated) | inactive: -11.5% |
| Cc1ccc2nc3c(cc(C(=O)NC4CCCC4)c(=N)n3C(C)C)c(=O)n2c1 | inactive: -6.41% |
| O=C1Cc2cc(S(=O)(=O)Nc3ccc(OC(F)(F)F)cc3)cc3c2N1CCC3 | inactive: -12.1% |
| Cc1ccccc1OCC(=O)Nc1ccc2nc(SCC(=O)N3CCCC3)sc2c1 | inactive: 24.3% |
| CCOC(=O)c1cc(-c2ccc(OC)c(S(=O)(=O)N3CCN(c4ccccc4)CC3)c2)on1 | inactive: -10.9% |
| COc1ccc(S(=O)(=O)c2nnn(-c3cccc(Cl)c3)c2N)cc1 | inactive: -5.61% |
| COc1cc2c(cc1OC)C(CC(=O)O)N(C(=O)Nc1cc(OC)c(OC)c(OC)c1)CC2 (configuration not stated) | inactive: -13.1% |
| Cc1ccc(C)c(N2CCN(CCCNC(=O)c3ccc4nc(N5CCC(C)CC5)sc4c3)CC2)c1 | inactive: -27.4% |
| CCc1ccc(C2=NN(CCC(=O)NCCc3ccccc3)C(=O)CC2)cc1 | inactive: -27.5% |
| CCc1c(C)c2cc3c(c(C)c2oc1=O)OCN(CCc1ccc(OC)c(OC)c1)C3 | inactive: 8.06% |
| CC(=O)c1ccc(Nc2cc(C)nc3nc(Cc4ccccc4)nn23)cc1 | inactive: -2.99% |
| CCc1cccc(NC(=O)C(Cc2ccccc2)NS(=O)(=O)c2cccs2)c1 (configuration not stated) | inactive: 48.7% |
| COc1ccc(-n2c(=O)c3c4c(sc3n(Cc3ccccc3C)c2=O)CCCC4)c(OC)c1 | inactive: -9.5% |
| COc1ccc(N(CC(=O)NCCc2ccccc2)S(=O)(=O)c2c(C)nn(C)c2C)cc1 | inactive: -5.5% |
| CCCn1c2ccccc2c2cnn(CC(=O)Nc3cc(OC)c(OC)c(OC)c3)c(=O)c21 | inactive: -13.8% |
| NS(=O)(=O)c1ccc(NC(=O)CCC(=O)O)cc1 | inactive: -2.15% |
| Cc1ccc(N2CCN(C(=O)Cn3ncc4c([nH]c5ccc(C)cc54)c3=O)CC2)c(C)c1 | inactive: 3.99% |
| CCC1(C)CC(=O)c2c(ccc3oc(C(=O)Nc4ccc(C(C)=O)cc4)c(C)c23)O1 (configuration not stated) | inactive: -15.8% |
| CCOc1ccc(C(=O)NCCc2csc(-c3cccc(C)c3)n2)cc1 | inactive: -8.8% |
| CC(C)CC(=O)Nc1nnc(S(=O)(=O)N2c3ccccc3CC2C)s1 (configuration not stated) | inactive: -2.69% |

| Structure (SMILES) | activation |
| --- | --- |
| CCc1nc2ccc(C(=O)N3CCN(c4cccc(Cl)c4)CC3)cc2nc1CC | inactive: -29.3% |
| CC(C)c1ccc(Nc2sc(C(=O)c3ccccc3)c(N)c2S(=O)(=O)c2ccccc2)cc1 | inactive: -1.26% |
| CCOC(=O)c1c(NC(=O)COc2ccccc2)sc(C(C)=O)c1C | inactive: 8.88% |
| CCN(C(=O)Cn1nc(Cc2ccncc2)c2ccccc2c1=O)c1ccc(OC)cc1 | inactive: -18% |
| COc1cc(C2CC(=O)c3c([nH]c(C(=O)OC4CCCC4)c3C)C2)cc(OC)c1OC (configuration not stated) | inactive: 30.6% |
| COC(=O)c1c(NC(=O)c2ccc(C(C)(C)C)cc2)sc2c1CCC(C)C2 (configuration not stated) | inactive: -6.04% |
| CC[C@@]1(O)C(=O)OCc2c1cc1n(c2=O)Cc2c-1nc1ccccc1c2/C=N/OC(C)(C)C | inactive: 17.5% |
| O=C(CSc1nc(=O)n(Cc2ccncc2)c2c1CCC2)Nc1cccc(F)c1 | inactive: 1.27% |
| CCOc1ccc(CCNC(=O)c2ccc(CSCc3ccccc3C)o2)cc1OCC | inactive: -25.2% |
| Clc1ccc(-c2cn3cc(Cc4ccccc4)sc3n2)cc1 | inactive: 34.9% |
| CCc1ccc(NC(=O)CNC(=O)Cn2c(C)cc3ccccc3c2=O)cc1 | inactive: -0.184% |
| CCN(C(=O)C(NS(=O)(=O)c1ccc(Br)s1)c1ccccc1)c1ccc(C)c(C)c1 (configuration not stated) | inactive: -40.3% |
| CC1(C)CC(=O)c2cc(-c3nc(-c4ccc(F)cc4)cs3)c(=O)[nH]c2C1 | inactive: -18.4% |
| COc1ccc(C)cc1NC(=O)Cn1cc(S(=O)(=O)N2CCC(C)CC2)c2ccccc2c1=O | inactive: -19.3% |
| Cc1cc(C)cc(OCC(=O)N2CCC(c3nc4ccccc4o3)CC2)c1 | inactive: -24% |
| COC(=O)c1ccccc1NC(=O)C(Cc1ccccc1)N1Cc2ccccc2C1=O (configuration not stated) | inactive: -26.6% |
| CCC(=O)N1c2ccccc2CC1C(=O)NCCN1CCN(c2cc(Cl)ccc2C)CC1 (configuration not stated) | active: 68.5% |
| CCOc1ccc(NC(=O)c2c(NCc3cc(OC)c(OC)cc3OC)sc3c2CCCC3)cc1 | inactive: -8.12% |
| CC(=O)c1cccc(NC(=O)c2ccc3c(c2)N(Cc2ccc(C)cc2)CCS3)c1 | inactive: -15.3% |
